Measurements as given in ChEMBL document CHEMBL4888484, “Replenishing the malaria drug discovery pipeline: Screening and hit evaluation of the MMV Hit Generation Library 1 (HGL1) against asexual blood stage Plasmodium falciparum ,using a nano luciferase reporter read-out” (2022).
About 540 (0.36%) of roughly 150,000 compounds showed an effect of 50% or more. This is one part of the list.

tested on: Plasmodium falciparum; assay: Primary screen in NF54 nanoGlo assay, in single point, at 2uM, 72h; a lower Z score goes with more inhibition; assay type: functional, Erythrocyte; settings: timepoint 72 hour

Row | Structure (SMILES) | % Inhibition [%] | Z score
1 | Cc1noc([C@H](C)NC(=O)C2=NN(c3ccccc3)C(=O)CN2)n1 | -12 | 1.81
2 | CCc1nnc(CN(C)[C@@H](C)C(=O)NCc2ccccc2)o1 | -5 | 0.86
3 | C=CCNC(=O)CN1C(=O)CCn2nc(-c3cn(C)c4ccccc34)cc21 | 2 | -0.42
4 | CCOCCCC(=O)N1c2c(c(C)nn2C)N(C(=O)OC(C)(C)C)C[C@@H]1C | -3 | 0.48
5 | c1cncc(NCCNc2nc(-c3ccco3)nc3c2CCNCC3)c1 | 1 | -0.17
6 | CC(C)c1ccc(-c2cc3c4nn(CC(=O)N(C)c5ccc(F)cc5)c(=O)n4ccn3n2)cc1 | -16 | 2.2
7 | Cc1ccc(NC(=O)C2[C@H]3C=C[C@@]4(O3)C(C(=O)NC3CCCC(C)C3C)N(CCC(C)C)C(=O)[C@@H]24)cc1Cl (stereo partly drawn) | 2 | -0.31
8 | CCCCCN(C)c1ccc(F)cc1CNc1nnc(-c2cnn(C)c2)o1 | -6 | 1.11
9 | Cc1csc(C(NC(=O)N(C)C(C)C2CC2)C2CC2)n1 (stereo not drawn) | -1 | 0.06
10 | O=C(NC1CCOCC1)N1CCC(F)(F)CC1 | -23 | 2.98
11 | O=C1NC(=O)C2(CCN(C(=O)c3n[nH]c(=O)c4ccccc34)CC2)N1 | -1 | 0.18
12 | CC1CCCN(S(=O)(=O)NCC(c2ccco2)N2CCCC2)C1 (stereo not drawn) | -10 | 1.33
13 | CCn1ncc2[nH]c(-c3cc(CC(C)C)[nH]n3)nc21 | -6 | 0.86
14 | CCc1c(C)nc(C)nc1NC[C@H]1CN(C(C)=O)CCO1 | -5 | 0.91
15 | CCOc1cncc(CN[C@H]2CCCN(c3ccnn3C)C2)c1 | 10 | -1.16
16 | COCC1(CNCc2ccnn2-c2ccccc2)CCC1 | 9 | -1.38
17 | Cc1cccc(S(=O)(=O)c2csc3c2NC(=O)C[C@@H]3c2cccc(Cl)c2)c1 | 0 | 0
18 | Cc1nsc(N2CCC(NCc3ccccc3)CC2)n1 | 3 | -0.37
19 | Cc1cc(C)c2c3ccccc3n(CCNC(=O)c3ccncc3)c2n1 | 4 | -0.52
20 | Cc1cccc(NC(=O)Cn2c(C)cc3nc4n(c(=O)c32)CCC4)c1C | -12 | 1.37
21 | Cc1ccc(C2OCCCC2NC(=O)CC(C)c2c(C)noc2C)cc1 (stereo not drawn) | 3 | -0.37

Row | Structure (SMILES) | % Inhibition [%] | Z score
22 | OC(c1nc2ccccc2[nH]1)C(O)C(O)C(O)c1nc2ccccc2[nH]1 (stereo not drawn) | -15 | 2.38
23 | CCN(CCNC(=O)C1CCN(S(=O)(=O)N(C)C)CC1)c1ccc(C)cc1 | -25 | 2.18
24 | C#Cc1cccc(N(C(=O)CCNC(=O)C(C)(C)C)C(C)C)c1 | -11 | 0.94
25 | O=C1CN(Cc2ccccc2)C2(CCN(Cc3ccncc3)CC2)N1 | -3 | 0.37
26 | COc1ccc(OC)c(NC(=O)[C@@H]2CCCN2S(=O)(=O)c2cc3c(cc2C)NC(=O)CO3)c1 | -8 | 1.64
27 | O=C(NCc1cccnc1)/C(=C\c1cccc(Oc2ccccc2)c1)S(=O)(=O)c1ccccc1 | -20 | 1.75
28 | Cc1cc(C(=O)N2C(C)CC3CCCCC32)nn1C (stereo not drawn) | 1 | -0.21
29 | C=CCCC(=O)NC[C@@H](CO)Cc1ccc(F)c(Br)c1 | 4 | -0.72
30 | CS(=O)(=O)N[C@H]1CCCN(C(=O)N2CCc3ccccc32)C1 | -12 | 1.56
31 | C[C@H]1CN(C)CCN1C(=O)c1occc1-c1ccccc1 | -4 | 0.46
32 | CCCn1cc(CCNC(C)=O)c2cccnc21 | -20 | 2.32
33 | Cc1cc(OCCN2C(=O)[C@@H](C)CNc3ccccc32)ccc1Cl | -13 | 1.47
34 | CCN(CCC1CC1)C(=O)c1oc(C(F)F)cc1C | 1 | -0.12
35 | CN1CCC(n2nc(-c3ccccc3)nc2Cn2ccc(=O)[nH]c2=O)CC1 | -2 | 0.43
36 | O=C1N(CCN2C(=O)C3(OCCO3)c3ccccc32)c2ccccc2C12OCCO2 | 1 | -0.11
37 | COCCOCC(=O)NCc1ccc(N(C)C)c(C)c1 | 5 | -0.85
38 | CC(C)c1ccc(C(=O)N(C)CC(C)(CO)CO)cn1 | -6 | 0.55
39 | COCCN1CCC[C@@]2(CCN(Cc3cnn(-c4ccc(Cl)cc4)c3)C2)C1 | -9 | 1.21
40 | O=C1CC2(CCN(c3nnnn3-c3ccccc3)CC2)CN1Cc1ccccc1 | -4 | 0.66
41 | CCN1C(=O)NC(=O)C12CCN(C(=O)[C@@H](c1cccc(F)c1)N(C)C)CC2 | -4 | 0.56
42 | O=C1CCCC[C@H](CNC(=O)c2ccncc2)N1 | -3 | 0.53

Row | Structure (SMILES) | % Inhibition [%] | Z score
43 | O=C(NCc1ccco1)c1ccc2c(=O)n(-c3cccc(Cl)c3)cnc2c1 | -2 | 0.27
44 | CCN(CC)C(=O)c1nc(CNC(=O)c2ccc(C)s2)oc1C | -4 | 0.44
45 | CCN(CC)C(=O)Cc1c(C)nn(C)c1C | -2 | 0.4
46 | O=C(NCCc1ccccc1)c1ccccc1NC(=O)[C@H]1CC(=O)N(c2ccc(F)cc2)C1 | -2 | 0.26
47 | O=C(Cn1c(-c2cccs2)cc2ccccc21)NC1CCCCC1 | -6 | 0.91
48 | C=CCNC(=O)c1ccc(N(C)C[C@H]2CCCOC2)nc1 | -18 | 1.88
49 | O=C(c1c(F)cccc1F)N1CC(c2nc(-c3ccncc3)no2)C1 | -8 | 1.18
50 | Cc1nc(-c2ccccc2)cc2n[nH]c(=O)n12 | 26 | -2.91
51 | O=C(NCc1cccc(F)c1)c1cccc(C(=O)NCc2cccc(F)c2)n1 | 6 | -0.83
52 | O=C(Nc1sc2c(c1[C@H](O)c1ccccc1)CCCC2)c1cccs1 | -3 | 0.3
53 | O=S(=O)(NCc1nc2ccccc2o1)N1CCCCC1 | 1 | -0.14
54 | O=C(CNC1(c2cccc(Cl)c2)CC1)NCC1CCC1 | -10 | 1.74
55 | O=C(CCc1ccsc1)N1CC[C@H](CN2CCCCC2)C1 | 9 | -1.37
56 | O=C(CN1C(=O)COc2ccc(Cl)cc21)NCCOc1ccccc1 | 3 | -0.64
57 | CNC(=O)Cc1csc(NC(=O)c2ccnc(OCC3CC3)c2)n1 | -16 | 3.1
58 | O=C1CN(C(=O)C[C@H]2CCC3(CCC3)O2)c2cc(F)c(F)cc2N1 | -12 | 1.54
59 | COc1ccc(C[C@@H]2C3=C(CCCC3)CCN2C(=O)[C@@H]2CCCN2C(N)=O)cc1 | -5 | 0.83
60 | Cc1cnc(NC(=O)CN(CC(C)C)S(C)(=O)=O)s1 | -5 | 0.87
61 | C[C@@H](C(=O)Nc1cccc2c1ccn2Cc1ccccc1)n1nnc2ccccc2c1=O | -3 | 0.44
62 | O[C@@H](Cn1cnnc1)c1ccc(OC(F)(F)F)cc1 | 8 | -1.18
63 | COc1cc(-c2nnc(-c3ocnc3C)o2)ccc1OCCC(C)C | -6 | 0.74

Row | Structure (SMILES) | % Inhibition [%] | Z score
64 | CC(C)(C)n1nc(-c2ccccc2)nc1[C@H](N)CO | -2 | 0.34
65 | CC(C)[C@H](NC(=O)C1=CCCC1)C(C)(C)O | -6 | 0.66
66 | O=C(c1cccc(-c2ccc(Cl)cn2)c1)N1CCC(N2CCCC2)CC1 | -15 | 1.97
67 | Cc1cnn(CCC(=O)NC[C@@]23CCC[C@@H]2OCC3)c1 | -7 | 1.35
68 | CCCNS(=O)(=O)N1CCN(c2cc(C3CC3)n[nH]2)CC1 | 25 | -2.8
69 | CNC(=O)[C@@H]1CC[C@](C)(C(=O)NCc2nc(-c3cnccn3)n[nH]2)C1(C)C | 0 | -0.07
70 | CO[C@@H](C)C(=O)NS(=O)(=O)c1ccc2c(c1)OCCCO2 | -15 | 2.28
71 | CC[C@@H](CO)NC(=O)Nc1ccn(-c2ncccc2Cl)n1 | 2 | -0.2
72 | Cc1cc(C(=O)N2CC[C@H](CN)C2)c2cc(Br)ccc2n1 | -5 | 0.6
73 | CN1CCC(N(c2ccccc2)S(=O)(=O)c2cc(Cl)cc3c2OCC3)CC1 | -6 | 0.62
74 | CC1(C(=O)N2CCC[C@H](CN3CCOCC3)C2)COC1 | -15 | 1.64
75 | COc1ccccc1C(=O)N[C@@H]1CN(c2ccncn2)C[C@H]1CO | -7 | 1.25
76 | CCN(C(=O)NCC1CCCO1)C(C)CS(=O)(=O)CC (stereo not drawn) | -12 | 2.24
77 | O=C1CNC(=O)N1[C@H]1CCN(S(=O)(=O)CCc2ccccc2)C1 | -3 | 0.6
78 | CC(C)c1nc(NC(=O)c2cnc(Cc3ccccc3)s2)n(C)n1 | -5 | 0.48
79 | CCOC(=O)C1C(=O)NC2c3ccccc3OC3CCCC[C@]312 (stereo partly drawn) | -7 | 0.93
80 | CC(C)CC(=O)N(CCc1nc(-c2ccc(N(C)C)cc2)no1)C1CCCCC1 | -3 | 0.37
81 | COc1ccccc1C(=O)N(Cc1cccc(OC)c1OCc1nc(CO)cs1)C1CC1 | -8 | 1.4
82 | CC(=Cc1ccccc1)CN(C)C[C@H]1CCOC1 | 0 | 0.02
83 | CCn1cc(S(=O)(=O)N2C[C@H](NC(C)=O)[C@@H](c3ccc(C)cc3)C2)cn1 | 2 | -0.46
84 | CCN(CCN1CCCC1)Cc1cc2c(cc1OC)OCCCO2 | 7 | -1.41
